Source: publication PMC12136788
Some of the results follow.

B1: chr15:35867035:35867036:-_ENSMUSG00000014313_ENSMUST00000014457|mus_mus|FALSE|FALSE (ssRNA)
RNA: GGGAGUUCUACAGUCCGACGAUCAGAAGACCACGCAUCUGUGGUUUGGGCAACAGCGCACCGGAACUCAUGGUAGCCAAUGUCCUCUACACCAACGUCCUUCCCGGUUCUCGGAGAAACGGAGAGCCUUCCAGCAGCACGCAUCAACAGAGGAUUGAGCAUCA
B2: chr4:140556289:140556290:+_ENSMUSG00000036622_ENSMUST00000037055|mus_mus|mus_mus_mus_hu_False|1_48 (ssRNA)
RNA: GGGAGUUCUACAGUCCGACGAUCGAUGGAGCUCACCAGGCCCCCUUUUGCCGUGCAGAACCCUGUGCGGGUCACCACUGCCAGGACACGGGGUCCCACAUAGGCCCGGGCCUGCAAGAUGAGGGUCCCGCAGAAGAGGGUGUGCAACAGAGGAUUGAGCAUCA
B3: chr2:128891733:128891734:+_ENSMUSG00000027394_ENSMUST00000035812|mus_mus|FALSE|FALSE (ssRNA)
RNA: GGGAGUUCUACAGUCCGACGAUCCCUCAGCCUCAGCCCCGCUGUCGGUCUAAUUCCAGGGCCGCGCCUCCGGAUUACCCUAGUGUCUGCCCUGGGCGCCCGCGCCACCGCCCGAGUGGCGAGCGCCACCCGGACGCCGCGCCCCAACAGAGGAUUGAGCAUCA
B4: chr2:179515052:179515053:+_ENSMUSG00000000305_ENSMUST00000000314|mus_hu|mus_mus_mus_hu_False|18_18 (ssRNA)
RNA: GGGAGUUCUACAGUCCGACGAUCGCUGUCCCAUGCAGUCACCGUGAACGCCACCUGCUCGGAGGGGACCUGCAGCUCCCGGGUGGCGAAGACUGUCCCAUCUGCCCCAACUUUGAAGUCCAAGCUGUUGGUCUCAUAUUGUGUCAACAGAGGAUUGAGCAUCA
B5: 106613029_106613149_2307_3pUTR_ENSMUSG00000040661_ENSMUST00000046502|mouse|control|control (ssRNA)
RNA: GGGAGUUCUACAGUCCGACGAUCUCCUGGAAAGGGUUAAAGCCAACUCCCUGUAGGAACUUGCUGUUGGUUGCUUCUCCCAUUGAGGAAGGCAAGGCACUAUCUUCUCCCUUGACUUUUGUGCCAUGUGGUGGGCAGCGGGCACAACAGAGGAUUGAGCAUCA
B6: chr14:57521665:57521666:+_ENSMUSG00000021945_ENSMUST00000022511|mus_mus|motif|central (ssRNA)
RNA: GGGAGUUCUACAGUCCGACGAUCAACAACGUCAUCAUCAUCUUCUACUGAUGAGUUCUGAAACUUACUAGAUCUAGACACGGAAGGAUUAGGUGGGCCACUAAAUGAAUUUCCUACGUUCGUGAGACUAGUUGCCAUGGCUGUCAACAGAGGAUUGAGCAUCA
B7: chr15:38448722:38448723:-_ENSMUSG00000037458_ENSMUST00000152833|mus_mus|FALSE|FALSE (ssRNA)
RNA: GGGAGUUCUACAGUCCGACGAUCAGAUAACGGCCCAAAGAGUCGGGUAAAGCGUCUUCUCUUUUUCGGCGGAAUUUUUAAAGAGGGAUGUGGUUACCUUGAGCAGAAAUACCCAAGGCGGCCUGGGCCAUAGGCUGCGGGGACCAACAGAGGAUUGAGCAUCA
B8: 128827806_128827926_1808_3pUTR_ENSMUSG00000040928_ENSMUST00000106061|mouse|control|control (ssRNA)
RNA: GGGAGUUCUACAGUCCGACGAUCCCUCUUCCUUACAGUAGACUGGAAGGUGAGUCUGCCUGCCCUUACAGCUGGUAUUUUACUCAAAGCCUGACUGUUCUGACUUAAUGCAGGCCUUCAAAAGAGAAUUACCUUCAUUUAAAACAACAGAGGAUUGAGCAUCA
B9: chr1:150923288:150923289:+_ENSG00000143379_ENST00000271640|hu_hu|FALSE|FALSE (ssRNA)
RNA: GGGAGUUCUACAGUCCGACGAUCCAAACAGAACAUCUCCAGGAAGAGGAAGUCACAGCCAGUCUCGAAAAGGUAGCGUUCUAUCUCCUGCAUUGUCCGAAGGCAGAGACCACAAGGUGUCUUAUAGAUAACAUGAAAGCCCAUCAACAGAGGAUUGAGCAUCA
B10: chr12:39763582:39763583:-_ENSG00000139116_ENST00000544797|hu_mus|hu_hu_hu_mus_False|28_58 (ssRNA)
RNA: GGGAGUUCUACAGUCCGACGAUCCUCUAGGAACUGGGCAUUCACUUUGAAUUCAGGAGGGGGCAGCCCGUUUUUAAUUGCUAUGUGCUUUUUCUCAUCAAUACUCUUAAAAAGGUGUCUAACAGCACGAGAGAUGAUGCCCUGCAACAGAGGAUUGAGCAUCA
B11: chr3:63791606:63791607:+_ENSMUSG00000027823_ENSMUST00000029405|mus_hu|motif|central (ssRNA)
RNA: GGGAGUUCUACAGUCCGACGAUCAAGCAAAACAACUUCUUCCUUCUGAAGGCCCCUGAAUAAUGAACAUGUAUUAUCCACACGGAUGUUGAAAACUCCAUCUUCUCUGACACUUUUUUUGUGCACAGUACCUCCAAAUACCUUCAACAGAGGAUUGAGCAUCA
B12: chr6:145166005:145166006:-_ENSMUSG00000030265_ENSMUST00000032399|mus_hu|motif|central (ssRNA)
RNA: GGGAGUUCUACAGUCCGACGAUCUUAACACAGAAGUUACUAAAUAUAAAUUCAGCUUUAAGGUAACUGCUGGGUUCGGAAAAACAUUACUACACAAUUAUCAAGAAAUCAUUACUUUUUGACAAAUGGAAAUCUUCAGAUAGUCAACAGAGGAUUGAGCAUCA
B13: chr12:72996743:72996744:+_ENSMUSG00000034574_ENSMUST00000085299|mus_mus|motif|central (ssRNA)
RNA: GGGAGUUCUACAGUCCGACGAUCAUAAAUGAAAUCCCCCGGCCGCCUCUCUUCCGUGGGGCCAUGGUUGAAUUCUCUCCGGUUUCUUGAUAUUUCUAUACUCUACUGGCCCCGGAGCUCCGGGAAGCAGCAGGAGGGCGCGCCCAACAGAGGAUUGAGCAUCA
B14: chr11:4127340:4127341:+_ENSG00000167325_ENST00000300738|hu_mus|hu_hu_hu_mus_False|38_68 (ssRNA)
RNA: GGGAGUUCUACAGUCCGACGAUCGGCAUAGUCAGGGUGCUUCGUGGUCAAGGUCGCGGCUGUCUCAGCAGCCAAAGUGUCCAGUUCCACUGUGGUGACCCCACUGUAUAGGCCUUGGAUUACUUUCAUGGUGAUCUGAGCAGGCAACAGAGGAUUGAGCAUCA
B15: chr15:103030146:103030147:-_ENSMUSG00000009575_ENSMUST00000118152|mus_hu|FALSE|FALSE (ssRNA)
RNA: GGGAGUUCUACAGUCCGACGAUCUUUGUUUUCCGCAUCCUCAGGAUAUGCAUGCCAUGUCAGUCUCUCUUCAUAAAAUGCUAUCACAAUUUGUGGACAUUUCACAUUAGCUUCUUUUGCAAGAACCAGGUCAGCUUCAUCUGUCAACAGAGGAUUGAGCAUCA
B16: chr4:142145789:142145790:+_ENSG00000109445_ENST00000262990|hu_hu|motif|central (ssRNA)
RNA: GGGAGUUCUACAGUCCGACGAUCACACUGUGCACAAAUUGGUAACUUCUGUACAGAAUUACAAAAGUAGCAAAAUGCUCGGUUCUUCUGCCGCCUCUGACACUUGUCACAUUCCAUUGAGGCAUUACAUGGAUGUUUAGCUAACAACAGAGGAUUGAGCAUCA
B17: chr6:42629286:42629287:-_ENSMUSG00000036667_ENSMUST00000045054|mus_mus|motif|central (ssRNA)
RNA: GGGAGUUCUACAGUCCGACGAUCAAAUAAAACCUUAUGACCAGUUACAACUACCCGACCCCGGCCAUAGCGAGCUGCAGCGGUCACACAGCCAUGGUAGGUAUCUAGCCCCAAAGGAAAAGCCAAAGACCCAUGAACUAGUAGCAACAGAGGAUUGAGCAUCA
B18: 123779010_123779130_5566_3pUTR_ENSG00000139697_ENST00000420886|human|control|control (ssRNA)
RNA: GGGAGUUCUACAGUCCGACGAUCUGAGUCCCCGUCACAGACUACUUCUGAAGGUCACCAGUGAGGGCCUAAACAAGAGUCCACUUCUUGUUAGUAUAAUAACUUUUUAUUUGACAUCUACAAGAUUUUGGCAUCUUGCAGCUUCAACAGAGGAUUGAGCAUCA
B19: chr2:232597714:232597715:-_ENSG00000156973_ENST00000287600|hu_mus|motif|central (ssRNA)
RNA: GGGAGUUCUACAGUCCGACGAUCGAAAAGCCUCACUUUGGAUGUGCUGACAAGAAGAUCAUCGUCAAAGAACUUUGUCUCGGUGAUGACAUUGCCCGUUAGGACGCUGGCGGGCAUCAUCUGGGACUCAGGCGCUGCUUCUAUCAACAGAGGAUUGAGCAUCA
B20: chr1:58468927:58468928:-_ENSMUSG00000026034_ENSMUST00000148330|mus_mus|mus_mus_mus_hu_False|8_8 (ssRNA)
RNA: GGGAGUUCUACAGUCCGACGAUCAAUUACUGAAAAAGAUGUUCAUUACCUUAGCUAUGUACUUAAUGAACCAAAUUACCCAAACAAAAUAAACAUGGCAAUAUAAAAAUGUUAAGAAUUUACAAAGAUUAAAAGCUUAACUUACAACAGAGGAUUGAGCAUCA
B21: chr11:46405157:46405158:+_ENSG00000110492_ENST00000395566|hu_hu|hu_hu_hu_mus_False|1_48 (ssRNA)
RNA: GGGAGUUCUACAGUCCGACGAUCCCCUCCCCACUUUGGGCACUUGGUGUGGGCGUGAGAGGACAGGCGUGAUUGACAGAGCUGACAAGCAGACAGAAGGCACUGGUGGGUUAUAUCUUGGGCCUGUGGGAGAGGAGGCGUGGGCAACAGAGGAUUGAGCAUCA
B22: chr22:32879901:32879902:+_ENSG00000100225_ENST00000397426|hu_mus|hu_hu_hu_mus_False|18_108 (ssRNA)
RNA: GGGAGUUCUACAGUCCGACGAUCCUCUGCCAUAUGCAUGGCAUCCUGAAUUGACUCAGCUUCAACAUUUUGACUAGGCCCUUCCAUACUGUCAUCAGUCCAGGCAUCAAAUGGGGUUGCCUGUCCUUGGGAUGAAUCAGUCCCCAACAGAGGAUUGAGCAUCA

Target: T1, UNK ZnF1-3 (human, UniProt Q9C0B0 31-174)
T1 sequence: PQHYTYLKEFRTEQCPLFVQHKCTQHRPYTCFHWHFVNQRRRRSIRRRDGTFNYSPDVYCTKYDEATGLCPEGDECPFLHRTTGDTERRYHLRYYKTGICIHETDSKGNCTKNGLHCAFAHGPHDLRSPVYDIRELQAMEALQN
Test: nsRBNS (natural sequence RNA bind-n-seq); RBNS binding buffer (assumed for nsRBNS): 25 mM Tris pH 7.5, 150 mM KCl, 3 mM MgCl2, 0.01% Triton X-100, 500 ug/ml BSA, 20 U/ml SUPERase-In, 4 C; UNK is unkempt and MSI1 is Musashi-1; names of the RNAs are library labels; protein concentration not given here; high values mean tight binding

Binder	binding signal [enrichment R]
B1	0.971
B2	0.769
B3	0.786
B4	0.791
B5	0.884
B6	1.19
B7	1.02
B8	0.665
B9	1.69
B10	1.86
B11	1.15
B12	0.967
B13	0.576
B14	0.921
B15	0.779
B16	0.945
B17	1.03
B18	0.805
B19	0.985
B20	1.17
B21	3.02
B22	0.786
